Data on 26 compounds can be found in patent US7034035B2, “Fungicidal mono-, bi-, and tri-cycloheteroalkyl amides and their compositions, methods of use and preparation” (priority 1999, dated 2006).

Test [1] relates to Plasmopara viticola—PLASVI. Nature of the test: whole plant or invertebrate. The note with it: 24 h, read-out: PLASVI in vivo 1 Day Protectant.
Test [2] relates to Plasmopara viticola—PLASVI. As to conditions: grape, 100 ppm, 24 hour protectant; control of fungal infection vs untreated plants.

For the compound `CCC(C)C(=O)O[C@H]1[C@H](C)OC(=O)[C@@H](NC(=O)c2nccc(OC)c2O)COC(=O)[C@@H]1Cc1ccccc1` (some centres unmarked) [Compound 389], the pest or weed control at 100 ppm in test [1] is below 25%.

Regarding `CC(C)C(=O)O[C@H]1[C@H](C)OC(=O)[C@@H](NC(=O)c2cn(C)nc2O)COC(=O)[C@@H]1Cc1ccccc1` [Compound 558], the pest or weed control at 100 ppm in test [1] was in the range of 75 to 100%.

Consider `COc1ccnc(C(=O)NC2CC(C)(C)C(OC(=O)c3ccccc3)C(C)(C)C2)c1O` (centres unmarked) [Compound 268], for which, in test [1], the pest or weed control at 100 ppm is 75 to 100%.

Take `COc1ccnc(C(=O)N[C@@H]2CC3CC2C2C(=O)N(CC(C)C)C(=O)C32)c1O` (some centres unmarked) [Compound 303]: the pest or weed control at 100 ppm in test [1] is 75 to 100%.

For `COc1ccnc(C(=O)NC2CC(C)(C)C(OC(=O)c3cccc(Cl)n3)C(C)(C)C2)c1O` (centres unmarked) [Compound 269], in test [1], the pest or weed control at 100 ppm fell in the range of 75 to 100%.

As to “N-(3-Hydroxy-4-Methoxy-2-Pyridylcarbonyl)-2-Amino-2-Deoxy-alpha-D-Glucopyranose [Compound 334]”, the “PLASVI in vivo 1 Day Protectant” value in test [2] is listed as “− (<25% control of fungal infection)”.

For the compound `CC(C)C(=O)O[C@H]1[C@H](C)OC(=O)[C@@H](NC(=O)c2nsnc2O)COC(=O)[C@@H]1Cc1ccccc1` [Compound 553], in test [1], the pest or weed control at 100 ppm lay in the range of 75 to 100%.

Take `COc1ccnc(C(=O)N[C@H]2COC(=O)[C@H](Cc3ccccc3)[C@@H](OC(=O)CC(C)C)[C@H](C)OC2=O)c1O` [Compound 390]: the pest or weed control at 100 ppm in test [1] is below 25%.

In the case of `COc1ccnc(C(=O)N[C@@H]2CC3CC2c2ccccc23)c1O` (some centres unmarked) [Compound 290], the pest or weed control at 100 ppm in test [1] lay in the range of 75 to 100%.

`COc1ccnc(C(=O)NC2COC(=O)[C@H](Cc3ccccc3)[C@@H](OC(=O)C(C)C)[C@H](C)OC2=O)c1O` (some centres unmarked) [Compound 475]: the pest or weed control at 100 ppm in test [1] was below 25%.

With `C[C@H]1C2CC([C@H]3CCC[C@@H]23)[C@@H]1NC(=O)c1ncccc1O` (some centres unmarked) [Compound 207], in test [2], the “PLASVI in vivo 1 Day Protectant” value is on record as “− (<25% control of fungal infection)”.

On to `CC1(C)CC(NC(=O)c2nsnc2O)CC(C)(C)C1` [Compound 552], for which the pest or weed control at 100 ppm in test [1] was 75 to 100%.

As to `COC(=O)C(COC(=O)C(CO[Si](C)(C)C(C)(C)C)Cc1ccccc1)NC(=O)c1nccc(OC)c1O` (centres unmarked) [Compound 350], the pest or weed control at 100 ppm in test [1] was below 25%.

Consider `COc1ccnc(C(=O)NCC#Cc2ccccc2)c1O` [Compound 240], for which the pest or weed control at 100 ppm in test [1] fell in the range of 75 to 100%.

In the case of `CC(C)C(=O)O[C@H]1[C@H](C)OC(=O)[C@@H](NC(=O)c2nccnc2O)COC(=O)[C@@H]1Cc1ccccc1` [Compound 534], the pest or weed control at 100 ppm in test [1] was 75 to 100%.

For the compound `O=C(N[C@H]1CC2CC1[C@@H]1CCC[C@H]21)c1ncccc1O` (some centres unmarked) [Compound 206], in test [2], the “PLASVI in vivo 1 Day Protectant” value is “− (<25% control of fungal infection)”.

For the compound `COc1ccnc(C(=O)NC2CC(C)(C)C(Cl)C(Cl)[C@H](C)[C@H]2C)c1O` (some centres unmarked) [Compound 281], the pest or weed control at 100 ppm in test [1] lay in the range of 75 to 100%.

On to `COc1ccnc(C(=O)NC2CC(C)(C)C(OC(=O)CC(C)C)C(C)(C)C2)c1O` (centres unmarked) [Compound 267], for which the pest or weed control at 100 ppm in test [1] was in the range of 75 to 100%.

As to `C=C(C)C(=O)O[C@H]1[C@H](C)OC(=O)[C@@H](NC(=O)c2nccc(OC)c2O)COC(=O)[C@@H]1Cc1ccccc1` [Compound 386], the pest or weed control at 100 ppm in test [1] fell in the range of 75 to 100%.

`CC(C)C(=O)O[C@H]1[C@H](C)OC(=O)[C@@H](NC(=O)c2cccnc2O)COC(=O)[C@@H]1Cc1ccccc1` [Compound 523]: the pest or weed control at 100 ppm in test [1] was in the range of 25 to 74%.

For `COc1ccnc(C(=O)N[C@@H]2CC3CC2[C@@H](C(=O)OC(C)C)C3)c1O` (some centres unmarked) [Compound 298], the pest or weed control at 100 ppm in test [1] fell in the range of 25 to 74%.

For `COc1ccnc(C(=O)N[C@@H]2CC3CC2[C@@H](c2ccccc2)[C@@H]3C(=O)OC(C)C)c1O` (some centres unmarked) [Compound 300], in test [1], the pest or weed control at 100 ppm lay within 75 to 100%.

On to `Cc1ccnc(C(=O)NC2C(=O)OC(=O)[C@H](Cc3ccccc3)[C@@H](OC(=O)C(C)C)[C@H](C)OC2=O)c1O` (some centres unmarked) [Compound 237], for which, in test [1], the pest or weed control at 100 ppm is below 25%.

Turning to `CC1(C)CC(NC(=O)c2ccnnc2O)CC(C)(C)C1` [Compound 539], the pest or weed control at 100 ppm in test [1] is below 25%.

For the compound `CC(C)C(=O)O[C@H]1[C@H](C)OC(=O)[C@@H](NC(=O)c2nscc2O)COC(=O)[C@@H]1Cc1ccccc1` [Compound 550], the pest or weed control at 100 ppm in test [1] fell in the range of 75 to 100%.

`Cn1cc(C(=O)NC2CC(C)(C)CC(C)(C)C2)c(O)n1` [Compound 557]: in test [1], the pest or weed control at 100 ppm is 75 to 100%.
